PubChem BioAssay AID1345083 (National Center for Advancing Translational Sciences (NCATS), 2018)
In all, about 94,000 compounds went through this assay and about 6,200 (6.6%) were called active. This list was built around the results that the source calls inconclusive (neither active nor inactive); the mix of calls is not that of the screen. The call rests on the fitted dose curve; in most records, active means well fitted inhibition curve with a large enough effect; inconclusive means small, poorly fitted or top-dose-only effect; inactive means flat fitted curve, though single readings scatter. Potencies of inconclusive entries are doubtful fits and often do not repeat.

Assay: Cytotoxic Profiling in HEK 293 Cell Line of Diverse Libraries Using Quantitative High-Throughput Screening; further: nearly all actives have a fitted effect of over 60% in size
Details: HEK 293 viability, ATP luminescence (CellTiter-Glo), 48-72 h; series mostly up to 115 µM
How it was run: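 qHTS cytotoxicity; HEK 293, 250 cells/well; compound pinned; 48 or 72 hr, 37 degree Celsius, 5% CO2, 95% humidity; CellTiter-Glo, 10 min RT; luminescence (ATP).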
Potency means the concentration at half of the fitted maximal effect; tags describe the fitted curve by direction and shape.

Row | Compound | Potency
1 | CCCNC(=O)Cc1ccc(N(Cc2ccc(OC)cc2)C(=O)c2ccco2)cc1 | inconclusive: 35.5 µM [inhibitor, partial curve, poor fit]
2 | COc1cc(CC(=O)N2CCC3(CC2)CC(O)CCO3)cc(OC)c1 (stereo not given) | inconclusive: 89.1 µM [inhibitor, partial curve, poor fit]
3 | CC#CCn1cc2c3c(cccc31)[C@H](CC(C)C)N[C@H](C(=O)N1CCN(C(C)=O)CC1)C2 | inconclusive: 112 µM [inhibitor, partial curve, poor fit]
4 | CNC(=O)c1cc(C2CC2)nc2c1c(C1CCN(C(=O)OC)C1)nn2C (stereo not given) | inconclusive: 89.1 µM [inhibitor, single point]
5 | CCCN(CC1CCCO1)C(=O)c1csc2nc(-c3cccc(C(F)(F)F)c3)cn12 (stereo not given) | inconclusive: 22.4 µM [inhibitor, full curve, poor fit]
6 | c1ccc(CN[C@@H]2C[C@@H]3CO[C@H](c4ccccc4)C[C@@H]3C2)cc1 | inconclusive: 79.4 µM [inhibitor, single point]
7 | COCCNC(=O)CC1=CSC2=NC(C)=C(C(=O)OC(C)C)C(c3ccc([N+](=O)[O-])cc3)N12 (stereo not given) | inconclusive: 56.2 µM [inhibitor, partial curve, poor fit]
8 | O=C1NCC2(CCN([S+](=O)([O-])c3ccccc3)CC2)Oc2ccccc21 | inactive
9 | COc1ccccc1Nc1ccnc(N2CCC(N[S+](=O)([O-])c3cccs3)CC2)n1 | inconclusive: 31.6 µM [inhibitor, partial curve, poor fit]
10 | CC(C)(Oc1nn(CC2CCOCC2)c2ccccc12)C(=O)NCc1ccncc1 | inactive
11 | Cc1ccsc1CN1C[C@@H]2C(C(=O)N3CCOCC3)=NO[C@@H]2C1 | inactive
12 | CN(Cc1cccc(C(F)(F)F)c1)C(=O)c1ccccc1F | inconclusive: 126 µM [inhibitor, single point]
13 | CN(C)c1ccc(-c2ccnc(N[C@H]3CO[C@H]4[C@@H]3OC[C@H]4OC(=O)Nc3cccc(C(F)(F)F)c3)n2)cc1 | active: 31.6 µM
14 | CN1C(=O)CCC2(CNC(=O)c3nn(C)c4ccccc34)CCCC=C12 (stereo not given) | inconclusive: 89.1 µM [inhibitor, single point]
15 | O=C(Nc1ccccc1Cl)c1cnc(-c2ccccc2)nc1-c1ccncc1 | inactive
16 | Cc1noc(C)c1-c1cnc2[nH]cc(CC(N)=O)c2c1 | inconclusive: 14.1 µM [inhibitor, full curve]
17 | Cn1ccnc1CN1C(=O)CO[C@H](c2ccc(NC(=O)COc3ccccc3)cc2)[C@H]1CO | inactive
18 | COc1ccc(NC(=O)c2ccc3c(c2)N(C)C2CCCCCN2C3=O)cc1F (stereo not given) | inconclusive: 28.2 µM [inhibitor, partial curve, poor fit]
19 | CCOC(=O)C1CCN(C(=O)C2CCc3nnc(CNC(=O)NC(C)(C)C)n32)CC1 (stereo not given) | inactive
20 | COc1cccc(NC(=O)[C@@H]2OCCN(C)[C@H]2c2ccccc2)c1 | inactive
21 | COc1ccc(-c2noc([C@@H]3C[C@H](NCc4ccc(S(C)(=O)=O)cc4)CN3C)n2)cc1 | inconclusive: 50.1 µM [inhibitor, partial curve, poor fit]
22 | C[C@@H](NC(=O)NC(C)(C)C)c1onc(-c2ccc(F)cc2)c1C(=O)O | inconclusive: 126 µM [inhibitor, single point]

Row | Compound | Potency
23 | COc1ccc(-c2ccc(C(=O)NCc3ccccc3)cc2)nn1 | inactive
24 | O=C(NC1CC1)c1nc2sccn2c1-c1cccnc1 | inactive
25 | Cc1cccc2cc(C(=O)N3CC[C@H](CO)[C@H](O)C3)oc12 | inconclusive: 100 µM [inhibitor, single point]
26 | O=C(C1CCN([S+](=O)([O-])c2cccc(C(F)(F)F)c2)CC1)N1CCC(N2CCCC2=O)CC1 | inactive
27 | CN1CCC2(C1)CN(Cc1ccccc1)c1ccc(C(=O)NCc3cccs3)cc12 (stereo not given) | active: 44.7 µM
28 | COc1ccccc1Cn1c(-c2ccc(F)cc2)nc(C)c(CCO)c1=O | inconclusive: 50.1 µM [inhibitor, partial curve, poor fit]
29 | Cc1cc(OCCN2CCOCC2)c(C)c2c1CC[C@@H]([C@H](C)C(=O)NCc1cccnc1)C2 | inconclusive: 31.6 µM [inhibitor, full curve]
30 | O=C(CCC1CCN(S(=O)(=O)c2ccccc2)CC1)NC1CCCCCC1 | inconclusive: 35.5 µM [inhibitor, partial curve, poor fit]
31 | c1cncc(-c2cc(-c3cccc(N4CCOCC4)c3)cn3cncc23)c1 | inconclusive: 63.1 µM [inhibitor, partial curve, poor fit]
32 | O=C1CC2(CCN(C(=O)c3cnn4ccccc34)CC2)CN1Cc1ccccc1 | inconclusive: 89.1 µM [inhibitor, single point]
33 | CS(=O)(=O)Nc1ccc([C@H]2OCC(=O)N(Cc3ccc(F)cc3)[C@@H]2CO)cc1 | inconclusive: 100 µM [inhibitor, partial curve, poor fit]
34 | COc1ccccc1CN1CCC2(Cc3ccccc3CNC2=O)C1 (stereo not given) | inconclusive: 89.1 µM [inhibitor, partial curve, poor fit]
35 | COc1cccc(CNC(=O)C2CCCN(c3nccc(Nc4ccccc4OC)n3)C2)c1 (stereo not given) | inconclusive: 28.2 µM [inhibitor, partial curve, poor fit]
36 | CCCNC(=O)N(C1CCOCC1)C1CCN(C(=O)c2ccc3ncccc3c2)CC1 | inactive
37 | COC(=O)C1=C(C)N=C2SC=C(CC(=O)N3CCOCC3)N2C1c1ccc([N+](=O)[O-])cc1 (stereo not given) | inactive
38 | COc1ncccc1-c1ccnc(-c2nnc(C)n2Cc2ccccc2)c1 | inconclusive: 89.1 µM [inhibitor, partial curve]
39 | Cc1ccc(C(=O)N(CC(C)C)CC2CN(C(=O)c3ccc(Cl)c(Cl)c3)CCO2)cc1 (stereo not given) | active: 44.7 µM
40 | Cc1ccc(NC(=O)Cn2c(C)cc3nc4n(c(=O)c32)CCCCC4)cc1Cl | active: 28.2 µM
41 | O=C(c1ccccc1F)N1CCC2(CC1)N=C(c1ccccc1)NO2 | inconclusive: 89.1 µM [inhibitor, single point]
42 | Cn1ncc(N2CCC(NC(=O)Cc3ccc(F)cc3)CC2)cc1=O | inactive
43 | CC(C)Cn1cc2c3c(cccc31)CNCC2 | inconclusive: 56.2 µM [inhibitor, partial curve, poor fit]
44 | COc1ccc(CCNC(=O)c2nc3sccn3c2-c2ccc(C(F)(F)F)cc2)cc1 | inactive

Row | Compound | Potency
45 | C#CCN(C)C(=O)C[C@@H]1c2nc(NC(=O)c3ccc(OC)cc3)sc2C[C@@H]2[C@](C)(CO)[C@H](O)CC[C@]21C | inconclusive: 79.4 µM [inhibitor, partial curve, poor fit]
46 | CC(C)(C)c1ccc(-c2cc(C[C@H]3CNCC[C@H]3CC(=O)N3CCOCC3)no2)cc1 | active: 25.1 µM
47 | Cc1nnc(-c2cc(-c3ccsc3)ccn2)n1-c1ccccc1 | inconclusive: 126 µM [inhibitor, single point]
48 | COc1ccccc1CCC(=O)N1CCC2(CC1)NC(=O)N(c1ccccc1)N2 | inconclusive: 35.5 µM [inhibitor, partial curve]
49 | Cc1nn(-c2ccccc2)c2c1C(C(C)C)N(C1CCCN(C(=O)Cc3ccc(F)cc3)C1)C2=O (stereo not given) | active: 25.1 µM
50 | O=C(Cn1cncn1)N1CC[C@@H]2[C@@H](CCC(=O)N2CCCCO)C1 | inconclusive: 7.08 µM [inhibitor, full curve, poor fit]
51 | CN1CCN(Cc2nnc(C(=O)N3CCC[C@@H]3C(c3ccccc3)c3ccccc3)n2-c2ccccc2)CC1 | inconclusive: 79.4 µM [inhibitor, partial curve, poor fit]
52 | CS(=O)(=O)c1ccc(CN2CCOC[C@H]2c2ncc(-c3ccc(Cl)cc3)[nH]2)cc1 | inactive
53 | CC(=O)N1C[C@@H]2CCCN3CCC[C@@H]([C@H]23)[C@H]1CCCC(=O)N1CCN(c2ccc(F)cc2)CC1 | inactive
54 | c1cncc(-c2cnc3n[nH]c(-c4ccc5c(c4)OCO5)c3n2)c1 | active: 28.2 µM
55 | COCCN1C(=O)CCC2(C(=O)NCCCc3ccccc3)CCCC=C12 (stereo not given) | inactive
56 | O=C(c1cnccn1)N1CCN(c2cc(-c3ccc(Cl)cc3)[nH]n2)CC1 | inconclusive: 89.1 µM [inhibitor, single point]
57 | OC1CN(Cc2ccccc2)CCN(c2nc(-c3ccccc3)no2)C1 (stereo not given) | inconclusive: 56.2 µM [inhibitor, partial curve, poor fit]
58 | Cc1cc(=O)n(CC(=O)Nc2ccc3c(c2)OCO3)c(-c2ccccc2)n1 | inconclusive: 39.8 µM [inhibitor, full curve]
59 | COCC(=O)N1CCC(Cc2ccc(C(N)=O)cc2)CC1 | inactive
60 | Fc1ccc(CN2CCC3(CC(Cc4ccccc4)=NO3)C2)cc1 (stereo not given) | inconclusive: 126 µM [inhibitor, partial curve, poor fit]
61 | O=C(c1ccco1)N1CCC2(CC1)CC(N(C(=O)c1ccccc1)C1CC1)CCO2 (stereo not given) | inconclusive: 10 µM [inhibitor, full curve, poor fit]
62 | CC(C)CCNC(=O)c1cnc2n1CCN(Cc1ccc3[nH]ccc3c1)CC2 | inconclusive: 112 µM [inhibitor, partial curve, poor fit]
63 | COc1ccc(-c2noc([C@@H]3CCCN3C(=O)c3cccc(C)c3)n2)cc1 | inconclusive: 44.7 µM [inhibitor, partial curve, poor fit]
64 | c1cncc(CN2CC(N3CCc4ccccc43)C2)c1 | inactive
65 | O=c1n(-c2ccc(F)cc2F)nc2n1CCN(Cc1cccc3ccccc13)C2 | inconclusive: 56.2 µM [inhibitor, partial curve, poor fit]
